These results are taken from PMC4336329 (PLoS ONE, 2015).

Each structure is given as a SMILES string. Out of some 310,000 compounds screened, about 2,200 (0.71%) showed an effect of 50% or more. The effect is printed as a negative number. The list shows a part of the results.

The target in this assay is human ether-à-go-go-related gene (hERG) potassium channel (human, UniProt Q12809). Kind of assay: primary screen, population patch clamp on CHO cells stably expressing hERG.
Chain of human ether-à-go-go-related gene (hERG) potassium channel (Q12809 whole entry, looked up): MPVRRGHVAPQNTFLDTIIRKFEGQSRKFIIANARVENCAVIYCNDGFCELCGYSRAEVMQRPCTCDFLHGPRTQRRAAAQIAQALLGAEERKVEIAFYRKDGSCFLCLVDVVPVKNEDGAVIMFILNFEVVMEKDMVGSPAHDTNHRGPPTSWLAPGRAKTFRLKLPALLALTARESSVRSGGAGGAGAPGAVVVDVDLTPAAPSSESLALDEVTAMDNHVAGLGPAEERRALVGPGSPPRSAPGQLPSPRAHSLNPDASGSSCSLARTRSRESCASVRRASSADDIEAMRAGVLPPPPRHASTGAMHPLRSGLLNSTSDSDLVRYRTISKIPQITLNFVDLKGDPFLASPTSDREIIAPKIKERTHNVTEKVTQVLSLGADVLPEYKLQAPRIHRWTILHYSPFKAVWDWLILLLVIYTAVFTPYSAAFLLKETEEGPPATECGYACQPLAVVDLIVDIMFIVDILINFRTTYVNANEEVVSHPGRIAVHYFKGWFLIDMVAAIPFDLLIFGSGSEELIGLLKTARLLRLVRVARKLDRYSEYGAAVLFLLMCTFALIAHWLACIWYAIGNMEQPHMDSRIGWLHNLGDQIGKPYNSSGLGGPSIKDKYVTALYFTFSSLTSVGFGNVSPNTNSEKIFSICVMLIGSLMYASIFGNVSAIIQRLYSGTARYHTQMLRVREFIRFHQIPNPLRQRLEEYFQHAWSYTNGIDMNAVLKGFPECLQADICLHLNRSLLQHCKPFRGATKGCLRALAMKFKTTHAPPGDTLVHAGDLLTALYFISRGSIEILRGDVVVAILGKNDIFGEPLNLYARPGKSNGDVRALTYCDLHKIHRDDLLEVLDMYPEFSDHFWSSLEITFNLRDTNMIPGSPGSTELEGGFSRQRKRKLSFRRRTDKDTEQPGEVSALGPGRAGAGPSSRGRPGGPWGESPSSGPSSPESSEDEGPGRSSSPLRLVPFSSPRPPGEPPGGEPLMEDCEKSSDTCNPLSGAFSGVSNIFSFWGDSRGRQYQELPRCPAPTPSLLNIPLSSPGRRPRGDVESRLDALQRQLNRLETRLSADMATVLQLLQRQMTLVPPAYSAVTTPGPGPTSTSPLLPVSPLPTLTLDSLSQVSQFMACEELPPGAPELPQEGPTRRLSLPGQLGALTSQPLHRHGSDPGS
Regarding `CCCCn1nnnc1SCC(=O)Nc1ccc2c(c1)OCO2`, the “hERG current change (%, negative = inhibition) at 1uM” value is recorded as 15.8%.
For the compound `CCCN(C(=O)c1cccc(S(=O)(=O)N2CCCc3ccccc32)c1)C1CCS(=O)(=O)C1` (stereo not drawn), the “hERG current change (%, negative = inhibition) at 1uM” value turned out to be 6.98%.
In the case of `O[C@@H]1COC(Nc2ccc(N=Nc3ccccc3)cc2)C[C@@H]1O` (stereo partly drawn), the “hERG current change (%, negative = inhibition) at 1uM” value worked out at 13.3%.
Consider `O=C(C1CCCO1)N1CCN(S(=O)(=O)c2ccc(Cl)cc2)CC1` (stereo not drawn), for which the “hERG current change (%, negative = inhibition) at 1uM” value was determined as 4.94%.
Turning to `O=C(c1ccccc1)c1cccs1`, the “hERG current change (%, negative = inhibition) at 1uM” value is listed as 10.8%.
For the compound `O/C(=C\c1ccc2ccccc2n1)c1ccncc1`, the “hERG current change (%, negative = inhibition) at 1uM” value was found to be 10.3%.
On to `O=C(OCCc1cc2ccccc2c(=O)o1)c1cccs1`, for which the “hERG current change (%, negative = inhibition) at 1uM” value was 13.3%.
For `COc1cccc(NC(=O)CCCn2c(=O)[nH]c3ccccc3c2=O)c1`, the “hERG current change (%, negative = inhibition) at 1uM” value was -0.0771%.
As for `Cc1ccc(SCc2nn(C)c(Cl)c2C=O)cc1`, the “hERG current change (%, negative = inhibition) at 1uM” value is reported as 0.227%.
Regarding `CCNC(=S)N1CCC(c2nc3ccccc3s2)CC1`, the “hERG current change (%, negative = inhibition) at 1uM” value is given as -0.895%.
Turning to `O=C(Nc1nnc(-c2ccc3c(c2)OCCO3)o1)C1CCCCC1`, the “hERG current change (%, negative = inhibition) at 1uM” value is 5.98%.
Take `COc1ccc(NC(=O)c2cn(C)c(=O)c3cc(OC)c(OC)cc23)cc1OC`: the “hERG current change (%, negative = inhibition) at 1uM” value stood at 15.6%.
Consider `Cc1cc(C)nc(NS(=O)(=O)c2ccc(NC(=O)c3ccc(O)cc3O)cc2)n1`, for which the “hERG current change (%, negative = inhibition) at 1uM” value was 14.4%.
The same measure for `COc1ccc(OC)c(NC(=O)COC(=O)c2c3c(nc4ccccc24)CCCC3)c1`: -0.309%.
As to `O=C(NCCS(=O)(=O)N1CCN(c2ccc(F)cc2)CC1)c1ccc(Br)o1`, the “hERG current change (%, negative = inhibition) at 1uM” value is on record as -24.1%.
Regarding `Cc1n[nH]c(C)c1CCCOc1ccccc1`, the “hERG current change (%, negative = inhibition) at 1uM” value worked out at 13.9%.
Turning to `c1ccc(C2Nc3ccccc3Oc3ccccc32)cc1` (stereo not drawn), the “hERG current change (%, negative = inhibition) at 1uM” value came out at 13.4%.
On to `O=C(Nc1ccc2c(c1)OCCO2)C1CCCN(S(=O)(=O)c2cccnc2)C1` (stereo not drawn), for which the “hERG current change (%, negative = inhibition) at 1uM” value was found to be 7.76%.
On to `Cc1ccccc1-c1nc(CS(=O)(=O)CC(=O)NCCc2ccccc2)c(C)o1`, for which the “hERG current change (%, negative = inhibition) at 1uM” value amounted to 9.24%.
`CCCOc1ccc(C2=CSC3=NCCN23)cc1[N+](=O)[O-]`: the “hERG current change (%, negative = inhibition) at 1uM” value is recorded as -68.4%.
The same measure for `c1csc(CNc2nc3ccccc3n2CCN2CCOCC2)c1`: -9.4%; for `CC1(C)CC2(CCO1)N1CC3(C)CN2CC(C)(C1)C3O` (stereo not drawn): 12.4%.
Turning to `COc1ccc(N(C(=O)c2ccco2)C(C(=O)NC2CCCC2)c2ccccc2)cc1` (stereo not drawn), the “hERG current change (%, negative = inhibition) at 1uM” value was found to be 15%.
For the compound `COCCCNC(=S)NNC(=O)c1cccnc1`, the “hERG current change (%, negative = inhibition) at 1uM” value was found to be 15.9%.
The result for `CN(C)c1ccc([N+](=O)[O-])cc1C(=O)O` reads 5.32%; that for `Cc1c(C(=O)N(C)CCOc2ccccc2)oc2c(Cl)cccc12`, 1.25%; that for `O=C(c1cccc2ccccc12)C1CCCN(C(=O)C2CCOCC2)C1` (stereo not drawn), 8.96%.
As to `Cc1nn(C)c(C(=O)NNC(=S)Nc2ccc(Cl)cc2)c1[N+](=O)[O-]`, the “hERG current change (%, negative = inhibition) at 1uM” value came to 4.76%.
As to `CCc1nnc(NC(=O)C2CCCN2C(=O)Nc2ccccc2)s1` (stereo not drawn), the “hERG current change (%, negative = inhibition) at 1uM” value was determined as 14.1%.
Regarding `Cc1ccc2c(c1)/C(=C/c1ccco1)C(=O)N2`, the “hERG current change (%, negative = inhibition) at 1uM” value was 11.4%.
The same measure for `CCS(=O)(=O)N1CCN(c2ccc(C(=O)N3CCOCC3)cc2[N+](=O)[O-])CC1`: 6.39%; for `Cc1ccc(C(=O)NCCc2cccs2)cc1`: 13.6%.
Take `COc1ccc(S(=O)(=O)N2CCCC2C(=O)Nc2ccc(C(C)=O)cc2)cc1` (stereo not drawn): the “hERG current change (%, negative = inhibition) at 1uM” value is listed as -1.27%.
For the compound `CCOc1cc(-c2nc(-c3ccccc3)c(-c3cc([N+](=O)[O-])ccc3C)[nH]2)ccc1O`, the “hERG current change (%, negative = inhibition) at 1uM” value is listed as -0.583%.
The result for `COC(=O)c1cc(=O)nc2sc(-c3cccs3)nn12` reads 5.86%; that for `O=c1c(-c2ccc(Br)cc2)[n+]([O-])c2ccccc2n1OCc1ccccc1`, 5.37%.
For the compound `NS(=O)(=O)c1cccc(NC(=O)CSc2nnc(C3CC3)n2C2CC2)c1`, the “hERG current change (%, negative = inhibition) at 1uM” value is reported as 11%.
The same measure for `O=C(CCNC(=O)c1ccccc1)N=Nc1c(O)[nH]c2ccccc12`: 13.6%; for `CCN(CC)S(=O)(=O)c1cccc(S(=O)(=O)c2cccc(S(=O)(=O)N(CC)CC)c2)c1`: 7.82%.
In the case of `CCN1C(=O)NC(c2cccnc2)C(C(=O)OC)=C1C` (stereo not drawn), the “hERG current change (%, negative = inhibition) at 1uM” value worked out at 2.97%.
For `Cc1noc(C)c1CS(=O)(=O)c1ccc([N+](=O)[O-])cc1`, the “hERG current change (%, negative = inhibition) at 1uM” value is on record as -1.88%.
The result for `Cc1ccc(SCC(=O)NCc2ccccc2C)cc1` reads 0.875%; that for `CN(C)CC/C=C1/c2ccccc2Sc2c(O)cc(Cl)cc21`, 2.15%; that for `O=C1CC2(CCCCCC2)Oc2ccc(Cl)cc21`, 12%.
Consider `O=C(CCOc1ccccc1)Nc1ccnn1C1CCN(Cc2ccc(F)cc2)CC1`, for which the “hERG current change (%, negative = inhibition) at 1uM” value was -8.91%.
